# Assay results taken from the supplement of paper PMC11417369.
# Some of the results follow.
# Test system: PfHDP1 homeodomain (GST-tagged)
# Test: gcPBM binding intensity (ln(normalized median fluorescence intensity)); higher = stronger DNA binding
# How it was run: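 In this array assay, P. falciparum DNA-binding domains with a GST tag, expressed in E. coli, were applied for 1 h to primer-extended double-stranded 36-bp intergenic genomic probes and negative controls on an Agilent 4 × 180k array. Bound protein was visualised with Alexa488 anti-GST antibody at 488 nm. Binding intensity is the highest Masliner-normalised natural-log median intensity across replicate spots of either probe orientation.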
row,Sequence,gcPBM binding intensity (ln)
1,CTAAAAGAACATGTGTGTACTTATGTTCTCTTTTTT [XGTACX_site5983],6.04
2,AATAAAAAAAAAAAAAAAAAAAAAAAGACACTAAAA [CACACA_negctrl_site1075],5.73
3,CTTACCAAAAAACACACACACACAAAATATATAAAT [CACACA_site1870],6.9
4,TTATTTTTTAGTAGTACACACTTTTTGTACCTTTTA [CACACA_site4503],6.7
5,GACACCCATAAATATACACACGCACAACACAAAATA [CACACA_site8944],7.7
6,TTATTTTCTTTTTCTTGTACACACATAATATGGATG [XGTACX_site1481],6.82
7,TTGTTAATAAAAATATTGGAAAGTTTATAAAATTTT [CACACA_negctrl_site1487],6.11
8,ATAATATATATACAAACACACAATTGCGTCCACATT [CACACA_site8515],7.04
9,TATAATAAATGGACGGTGCGACATGACCATATGTGT [GTGCAC_site9476],6.77
10,AAAAAGAAGAATAATACACACAAATTATTTTATATA [CACACA_site1919],6.42
11,TATTCCAAAAATGTGTGTACATAAATACAATATTAT [XGTACX_site2653],6.49
12,TTAAGATGCATAAATACATGCAAAGTAAATAATTCT [TGCATGCA_site517],6.08
13,TATAATCCATAAGAAGCACACACATATATATATATT [CACACA_site8394],6.6
14,AATAAATATTAAATGACAAAAAAAAAAAAAAAAGGG [XGTACX_negctrl_site15],6.6
15,ATTATAAGAATTAAAAGAAACAAAATTTTAATTATA [CACACA_negctrl_site610],6.39
16,CATATAATTATTTTCACACATATAACTACATCTATA [CACACA_site5915],6.68
17,TAAGATCCTTAAAACGCATGCAGTATTTTTATTTCT [TGCATGCA_site532],6.16
18,TAGCCAAAAGGATATGCACACACACCCACATATATA [CACACA_site8684],8.89
19,ATATAAATAAAAAAAAGTACATAATATATAAAAATA [XGTACX_site3065],6.55
20,CTTTTACGTTTAGGATGTACATTTAAAAAAAAAGAA [XGTACX_site8032],6.65
21,TAAGGGATATGTATATGTACATACAAATATATATAA [XGTACX_site2892],6.63
22,TGTAGATTTTGTAACACACACATATAAATACAGATA [CACACA_site5343],6.68

row,Sequence,gcPBM binding intensity (ln)
1,AATTTCATTTTTAGAAGTACATTTATATTAAAAATC [XGTACX_site2888],6.08
2,TTTGCTTCGATATATTCACACATTTTTTTTCTTATT [CACACA_site4499],6.92
3,AAATGTAATAAATATACACACACAAATATATATATA [CACACA_site8754],8.64
4,TCTTTCTGCTCTTATACACACAAATAAAGATTTTTT [CACACA_site2700],8.08
5,CATTGACCATTAATTTGTACACAAGGGGAAATGAGG [XGTACX_site1756],6.64
6,TATATATATATATATATATATATATATATATATATT [CACACA_negctrl_site1440],9.47
7,ATGAAATTTTCATATTGTACTATTAAAAATATATTT [XGTACX_site1989],6.24
8,TTAATTTGTTCTTACACACACATATAAATATATTTA [CACACA_site6676],6.99
9,ATATTTAAGGCGTGTATGCACACGACTATTCCGTAT [CACACA_site1080],8.25
10,TATTTTGTTTTAAAAGTACACACTTTTAATTAGATT [CACACA_site1180],6.58
11,TTATCATTATATAGTTGTACATATTTATTTATAAAA [XGTACX_site2310],6.61
12,TTTGTATAATACATGTGTACGTATTTTTATATAAAT [XGTACX_site8656],6.8
13,AGAACTAAAAGAACATGTACATAAATTCTAAATAAT [XGTACX_site4084],6.38
14,ATGATACTAAAAAATTGTACATATAACAAAAGGTAT [XGTACX_site2527],6.73
15,CATATATTTTGAAACACACACATATATAATATACAT [CACACA_site1158],6.66
16,ATAATTGTCCATTTTTTCTTTTTTTTTTTCTTTTTA [CACACA_negctrl_site928],5.94
17,CGCACAGACGGACACACACACACATATATATATATA [CACACA_site5249],9.17
18,AAAAAAAAAAAAAAAACACACATTTAGCAATCTACA [CACACA_site3706],6.62
19,ATATGATCATACTGTGCATGTTAATGCAAATTTTAT [TGCATGCA_site984],9.78
20,TACATATATTATACATGTACACATTTATACATATCG [XGTACX_site2866],6.54
21,TATATGTATTTGTATACACACAAATGTATATATTTA [CACACA_site1265],6.46
22,ATGTATTAAAATTTATGTACTTATATATAAATATAT [XGTACX_site1025],6.23
